“And” between values parts separate entries of the source, which are not always exact repeats. Equal values may be shown once. The campaign covered roughly 410,000 compounds. About 5,000 (1.2%) were called active. This list was built around the results that the source calls inconclusive (neither active nor inactive); the mix of calls is not that of the screen. Calls follow the shape of the dose curve; as a rule, active = well fitted inhibition curve with a large enough effect; inconclusive = small, poorly fitted or top-dose-only effect; inactive = no such curve, though single readings can be large or run the other way. A potency beside an inconclusive call is a rough fit, not a confirmed value.
assay: qHTS for Inhibitors of TGF-b; conditions: HepG2 CAGA-GFP TGF-b/SMAD3 reporter, GFP fluorescence, 18 h, TGF-beta stimulated, 500 pg/mL final; series mostly up to 46.1 µM; activity, negative = inhibition: at the top concentration; also: nearly all actives have a fitted effect of over 65% in size
Method in brief: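 Cell-based qHTS in HEPG2 carrying a CAGA-GFP Smad reporter; compounds added before 500 pg/mL final TGF-beta, 18 h incubation at 37 degrees C, GFP fluorescence quantified per cell by imaging cytometry.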
% is scaled to controls: 0 for no effect and ±100 for the full control effect; potency is read from the fitted curve at half-maximal effect; tags tell the direction and shape of the fitted curve.

Q: With O=C(NC1(Cc2ccccc2)CCN(CCCc2ccccc2)C1=O)c1ccccc1 (stereo unspecified) as the compound, how does the Potency read?
A: Its Potency is inconclusive: 28.2 µM [inhibitor, partial curve, poor fit].

Q: With Cc1cccc(C)c1-n1nnnc1C(C1CC1)N1CCN(C/C=C/c2ccccc2)CC1 (stereo unspecified) as the compound, how does the Potency read?
A: The Potency was inconclusive: 35.5 µM [inhibitor, single point].

Q: With C[C@H](NC(=O)c1nc[nH]c1C(=O)NCCCCCNC(=O)OC(C)(C)C)c1ccccc1 as the compound, how does the Potency read?
A: Its Potency is inconclusive: 22.4 µM [inhibitor, partial curve, poor fit].

Q: With CC(C)[C@H](NC(=O)Cc1ccccc1)C(=O)OCc1cc(=O)n2c(n1)sc1ccccc12 as the compound, how does the Potency read?
A: Its Potency is active: 15.8 µM.

Q: Which Potency does the source give for Cc1cccc(/C=C2\Oc3cc(OS(C)(=O)=O)ccc3C2=O)c1 here?
A: The Potency was inconclusive: 15.8 µM [inhibitor, single point].

Q: Which Potency does the source give for Cc1ccccc1-c1nc(CS(=O)(=O)CC(=O)NCCCN2CCN(C)CC2)c(C)o1 here?
A: The Potency was inconclusive: 562 nM [inhibitor, full curve] and inconclusive: 35.5 µM [inhibitor, single point].

Q: For CCc1cc(CC)c(/C=N/NC(N)=O)c(CC)c1, which Potency is on record?
A: Its Potency is inconclusive: 22.4 µM [inhibitor, single point].

Q: Which Potency does the source give for CCN(CC)CCCN(C(=O)c1ccc(F)cc1)c1nc(-c2ccc(OC)cc2)cs1 here?
A: The Potency was inconclusive: 35.5 µM [inhibitor, single point].

Q: For COc1ccc(-c2cc(C(F)(F)F)n3nc(C(=O)O)nc3n2)cc1, which Potency is on record?
A: Its Potency is inconclusive: 35.5 µM [inhibitor, single point].

Q: With O=C(C1=NN(c2ccccc2)C2C(=O)N(c3ccccc3)C(=O)C12)c1ccccc1 (stereo unspecified) as the compound, how does the Potency read?
A: The Potency was inconclusive: 5.62 µM [inhibitor, single point].

Q: Which Potency does the source give for CC(C)C1CC(CCNCc2ccc3c(c2)OCO3)(c2ccccc2)CCO1 (stereo unspecified) here?
A: Its Potency is inconclusive: 28.2 µM [inhibitor, single point].

Q: Which Potency does the source give for COc1cc(N=c2ssnc2Cl)c(OC)cc1Cl here?
A: Its Potency is inconclusive: 15.8 µM [inhibitor, single point].

Q: With Cc1ccc(N2CCN(C(=O)c3cn(C)c4ccc(S(=O)(=O)N5CCC(C)CC5)cc4c3=O)CC2C)cc1 (stereo unspecified) as the compound, how does the Potency read?
A: The Potency was inconclusive: 8.91 µM [inhibitor, partial curve].

Q: Which “activity, negative = inhibition” value does the source give for COc1ccc2c(c1)CC(C(=O)Nc1ccc(Br)c(C)c1)CO2 (stereo unspecified) here?
A: Its value is inactive: 0.376%.

Q: For O=C(Nc1nnc(S(=O)(=O)N2CCCc3ccccc32)s1)c1ccc(Cl)cc1, which Potency is on record?
A: Its Potency is inconclusive: 35.5 µM [inhibitor, single point].

Q: For COCc1cc(=O)c2ccccc2o1, which Potency is on record?
A: Its Potency is inconclusive: 12.6 µM [inhibitor, single point].

From PubChem BioAssay AID588855 (National Center for Advancing Translational Sciences (NCATS), 2011)
